Measurements as given in PubChem BioAssay AID1460 (National Center for Advancing Translational Sciences (NCATS), 2008).
In all, about 270,000 compounds went through this assay and about 5,800 (2.1%) were called active. About 16% were inconclusive and are not listed. The call rests on the fitted dose curve; in most records, active means well fitted inhibition curve with a large enough effect; inconclusive means small, poorly fitted or top-dose-only effect; inactive means flat fitted curve, though single readings scatter. The list shows a part of the results, in another mix than the full data.

Each molecule was assayed against Microtubule-associated protein tau (Homo sapiens) (UniProt P10636) (assay: qHTS for Inhibitors of Tau Fibril Formation, Thioflavin T Binding). Conditions: recombinant tau K18 P301L (four-repeat tau fragment), heparin-induced fibrillization, ThT fluorescence; series mostly up to 57.4 µM; activity, negative = inhibition: at the top concentration.
Sequence of UniProt P10636 (P10636 whole entry, looked up, the tested form may be a part): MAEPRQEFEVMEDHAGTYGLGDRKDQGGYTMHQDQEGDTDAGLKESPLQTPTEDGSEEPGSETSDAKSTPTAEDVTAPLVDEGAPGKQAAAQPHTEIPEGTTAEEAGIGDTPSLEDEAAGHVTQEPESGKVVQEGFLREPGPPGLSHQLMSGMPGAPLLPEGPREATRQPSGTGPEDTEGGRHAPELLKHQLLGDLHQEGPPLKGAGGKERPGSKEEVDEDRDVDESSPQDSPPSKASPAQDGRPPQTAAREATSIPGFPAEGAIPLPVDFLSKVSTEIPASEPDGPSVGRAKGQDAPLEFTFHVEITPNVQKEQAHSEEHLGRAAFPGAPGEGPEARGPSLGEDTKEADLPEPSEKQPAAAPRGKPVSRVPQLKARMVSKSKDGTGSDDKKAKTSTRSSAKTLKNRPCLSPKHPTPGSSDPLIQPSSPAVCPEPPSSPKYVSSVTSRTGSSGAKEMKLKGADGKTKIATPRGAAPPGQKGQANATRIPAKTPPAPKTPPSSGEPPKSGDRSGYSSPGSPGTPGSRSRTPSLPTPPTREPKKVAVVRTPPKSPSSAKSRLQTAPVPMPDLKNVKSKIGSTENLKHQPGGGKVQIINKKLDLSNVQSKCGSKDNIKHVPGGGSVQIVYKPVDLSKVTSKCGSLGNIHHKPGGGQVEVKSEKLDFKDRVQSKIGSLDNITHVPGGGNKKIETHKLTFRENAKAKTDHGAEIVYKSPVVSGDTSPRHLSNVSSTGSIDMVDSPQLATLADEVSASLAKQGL
Outline: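 Heparin-induced fibrillization of the P301L-mutant K18 repeat-domain fragment of human tau was followed by ThT binding in quantitative high-throughput format.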
Further: nearly all actives have a fitted effect of over 55% in size.
On the % scale 0 is the no-effect control and ±100 the full control effect; potency means the concentration at half of the fitted maximal effect.

activity, negative = inhibition, inactive:
COC(=O)c1ccc(C23CC4(C2)[C@H](CN(Cc2ccc(C(F)(F)F)cc2)[C@@H]4c2ccccc2)C3c2ccc(C(F)(F)F)cc2)cc1 (stereo partly specified) 3.12%
CC(/C=C/C(=O)NO)=C\[C@@H](C)C(=O)c1ccc(N(C)C)cc1 -19.8%
CC(=O)c1cc2c(cc1N/C(=N/S(=O)(=O)c1ccc(C)cc1)c1ccc(Cl)cc1)OCO2 19.7%
CC1(C)C=Cc2cc3ccc(=O)oc3cc2O1 -12.9%
CN(C)CCCN1c2ccccc2Sc2ccc(Cl)cc21 -18.4%
Cc1cccc(C)c1OCC(=O)Nc1ncn[nH]1 -0.0429%
O=C(O)c1ccccc1Nc1ccccc1 -10.5%
Cc1sc(N2C(=O)C3C(C2=O)[C@H]2C=C[C@@H]3C2)c(C#N)c1C (stereo partly specified) -16.8%
O=C(Nc1ccc(F)cc1)N1CCN(c2ccc3nnc(-c4ccc(F)cc4)n3n2)CC1 -25.4%
CCCCCCCCCCCCCCCC(=O)OC(CC(=O)O)C[N+](C)(C)C (stereo unspecified) -19.6%
O=C(/C=C/c1ccco1)Oc1cccc2cccnc12 -19.2%
COCOc1ccc(OC)cc1C(=O)/C=C/c1ccc(OC)c(Br)c1 -6.82%
N#C/C(=C/c1ccco1)c1nc2ccccc2s1 8.87%
Cc1cc(Cl)cc2c1NC(=O)[C@]21[C@@H]2C(=O)N(Cc3ccccc3)C(=O)[C@@H]2[C@@H]2CCCN21 -16.5%

Potency, active:
Cc1ccccc1C(=O)N1CCN(c2ccc(NC(=O)c3ccc4c(c3)OCO4)cc2)CC1 12.6 µM
NS(=O)(=O)c1ccc(Nc2nc3ccccc3nc2NS(=O)(=O)c2cccc([N+](=O)[O-])c2)cc1 11.2 µM
O=C(NCCc1ccccc1)c1ccc2nc(-c3ccco3)c(-c3ccco3)nc2c1 7.08 µM
COC(=O)CN1C(=O)C2(C(C#N)=C(N)Oc3c2c(C)nn3-c2ccccc2)c2ccccc21 (stereo unspecified) 28.2 µM
CC1(C)CC(=O)C2=C(C1)N(c1cccnc1)C(N)=C(C#N)C2c1cccs1 (stereo unspecified) 20 µM
O=c1[nH][nH]c(-c2ccccc2O)c1C(C[N+](=O)[O-])c1cccc(Cl)c1 (stereo unspecified) 25.1 µM
O=C1CC(c2ccc(O)c(O)c2)Oc2c1ccc(O)c2O (stereo unspecified) 15.8 µM
Cc1nn(-c2ccccc2)c(N2CCCC2)c1/C=N/Nc1ccc(S(N)(=O)=O)cc1[N+](=O)[O-] 5.01 µM
CC1(C)C(=O)NC2=C1C(=O)C(=O)c1ccccc12 17.8 µM
CCCC(=O)Oc1c(Sc2ccc(C)cc2)c(C)nn1-c1ccccc1 25.1 µM
CN1C(=O)CS/C1=N\NC(=O)COc1cccc2cccnc12 10 µM
Oc1ccccc1CNc1cccc2cccnc12 6.31 µM
